Data as given in article PMC4336329 (PLoS ONE, 2015).
The campaign covered roughly 310,000 compounds. About 14,000 (4.5%) showed an effect of 50% or more. The effect is printed as a negative number. This is one part of the list.

These molecules were tested against human ether-à-go-go-related gene (hERG) potassium channel (human, UniProt Q12809) (assay: primary screen, population patch clamp on CHO cells stably expressing hERG).
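Further: peak tail current of the secondary pulse compared with the same well before compound.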

Chain of human ether-à-go-go-related gene (hERG) potassium channel (Q12809 whole entry, looked up): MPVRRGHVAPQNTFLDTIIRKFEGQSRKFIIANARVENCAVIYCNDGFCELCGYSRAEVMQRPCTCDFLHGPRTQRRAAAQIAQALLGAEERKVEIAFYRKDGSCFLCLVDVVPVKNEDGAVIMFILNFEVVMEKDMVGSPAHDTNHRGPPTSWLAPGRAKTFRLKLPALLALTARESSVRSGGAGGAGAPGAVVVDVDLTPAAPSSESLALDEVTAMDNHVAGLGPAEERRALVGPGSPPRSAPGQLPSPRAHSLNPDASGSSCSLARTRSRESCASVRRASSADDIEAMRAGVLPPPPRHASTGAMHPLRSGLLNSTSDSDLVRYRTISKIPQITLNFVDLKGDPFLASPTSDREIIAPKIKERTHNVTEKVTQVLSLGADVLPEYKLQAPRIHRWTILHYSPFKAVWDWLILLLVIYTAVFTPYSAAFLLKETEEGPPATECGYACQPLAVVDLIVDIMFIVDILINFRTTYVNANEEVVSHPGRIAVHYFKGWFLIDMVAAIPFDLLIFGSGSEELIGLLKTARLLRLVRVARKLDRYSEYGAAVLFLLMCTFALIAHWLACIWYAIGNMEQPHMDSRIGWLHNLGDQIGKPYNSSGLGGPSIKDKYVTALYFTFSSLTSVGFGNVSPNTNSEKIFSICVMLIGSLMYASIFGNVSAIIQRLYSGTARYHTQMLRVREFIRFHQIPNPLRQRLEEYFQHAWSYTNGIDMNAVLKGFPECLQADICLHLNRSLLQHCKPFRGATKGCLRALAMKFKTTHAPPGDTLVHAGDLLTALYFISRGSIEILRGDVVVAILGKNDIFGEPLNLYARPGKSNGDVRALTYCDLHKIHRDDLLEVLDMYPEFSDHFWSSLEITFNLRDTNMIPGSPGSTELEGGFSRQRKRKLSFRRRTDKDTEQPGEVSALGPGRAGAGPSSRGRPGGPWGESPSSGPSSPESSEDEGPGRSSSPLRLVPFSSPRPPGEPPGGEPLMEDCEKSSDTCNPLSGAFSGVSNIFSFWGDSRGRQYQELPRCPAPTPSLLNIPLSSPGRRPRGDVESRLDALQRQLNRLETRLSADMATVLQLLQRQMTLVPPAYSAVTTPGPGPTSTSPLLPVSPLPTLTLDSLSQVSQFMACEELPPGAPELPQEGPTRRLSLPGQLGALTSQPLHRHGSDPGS

Row | Compound | hERG current change (%, negative = inhibition) at 10uM
1 | CC(C)C(OC(=O)c1ccco1)C(=O)NCc1cccs1 (centres unmarked) | -0.362%
2 | Cc1cnc(NS(=O)(=O)c2ccc(Cl)cc2)c(Br)c1 | 12.9%
3 | COc1ccc(OC)c(S(=O)(=O)N(C)CC(=O)Nc2ccc3c(c2)OCO3)c1 | -20.8%
4 | Cc1cc(Nc2ccccc2)nn1C(=O)c1ccccc1 | -6.06%
5 | COc1ccc(Cl)cc1NC(=O)c1nnn(CC(=O)Nc2ccc(OC)c(OC)c2)c1N | 15.1%
6 | Cl.c1ccc(COc2cccc(CNCc3cccs3)c2)cc1 | -30.8%
7 | COc1ccc(N(C(=O)c2snc(C(N)=O)c2N)C(CC(C)C)C(=O)NCC2CCCO2)cc1 (centres unmarked) | -14.8%
8 | Cc1ccc2c(c1)C1CN(C)CCC1N2C(=O)COc1ccccc1F (centres unmarked) | -4.18%
9 | COc1ccc(-n2ncc3c2CC(C)(C)CC3NC(=O)CSc2ccccn2)cc1 (centres unmarked) | -68%
10 | CC(=O)Nc1c(O)nc(SCC(=O)N2CCCCC2)[nH]c1=O | 13.5%
11 | NS(=O)(=O)c1cc2c(cc1Cl)NC(C(Cl)Cl)NS2(=O)=O (centres unmarked) | 20.2%
12 | CN(CC(=O)Nc1ccc(Cl)cc1)C(=O)CNC(=O)c1ccc2ccccc2c1 | 8.98%
13 | CC(=O)Nc1ccc(C2=CC(=O)C[C@H](c3ccc4c(c3)OCO4)C2)cc1 | -12.5%
14 | O=C(O)CSc1nc2ccccc2[nH]1 | 15.4%
15 | Cc1cccc(NC(=O)c2nc[nH]c2C(=O)NCC(=O)OC(C)(C)C)c1 | 12.1%
16 | CCOC(=O)Cc1csc(NS(=O)(=O)c2ccc(Cl)cc2)n1 | -5.9%
17 | CCCN(CCC)CCNC(=O)c1cc2c(=O)n(C)c3ccccc3c2n1C | -35.1%
18 | O=C(C1CCC(CNS(=O)(=O)c2ccccc2)CC1)N1CCOCC1 (centres unmarked) | 17.3%
19 | COc1ccc(C(=O)NCCNC(=O)c2cc(OCC(F)(F)F)ccc2OCC(F)(F)F)cc1 | 3.98%
20 | Cc1c(C)n(Cc2ccccc2)c2ncnc(NCCN(C)C)c12 | -16%
21 | CCC1CCCCN1C(=O)CCNC(=O)Cn1cnc2ccccc2c1=O (centres unmarked) | 20.6%
22 | COc1ccccc1CNS(=O)(=O)CC12CCC(CC1=O)C2(C)C (centres unmarked) | -12.6%
23 | CC(=O)NCCOC(=O)c1nn(Cc2ccccc2)c(=O)c2ccccc12 | -22.4%

Row | Compound | hERG current change (%, negative = inhibition) at 10uM
24 | COc1cc(NC2c3ccccc3C(=O)N2Cc2ccccc2Cl)cc(OC)c1OC (centres unmarked) | -0.846%
25 | c1ccc(-c2nn3c(C4CCCCC4)nnc3s2)nc1 | 7.48%
26 | Cc1cc(C)cc(-n2ccnc2SCC(=O)O)c1 | 6.99%
27 | CCOC(=O)c1c(C)[nH]c(C(=O)COC(=O)c2ccncc2)c1C | -2.44%
28 | CC(=O)c1c(C)cc(C)c(CSc2nc(C)cc(=O)[nH]2)c1C | -4.73%
29 | COC(=O)c1ccccc1NC(=O)Cc1nc(-c2ccccc2)sc1-c1ccc(C)cc1 | -6.29%
30 | O=C(Nc1ccc([N+](=O)[O-])cc1Br)c1cccnc1 | -17.2%
31 | COc1ccc(S(=O)(=O)/N=C2/NC(=O)/C(=C/c3ccco3)S2)cc1 | 11.5%
32 | COc1cc(C(=O)NCc2ccc(C)cc2)ccc1OC(F)F | -18.7%
33 | O=C(CNS(=O)(=O)c1ccccc1F)Nc1ccc(N2CCOCC2)cc1 | -3.06%
34 | CC1(C(=O)Nc2nc3ccccc3s2)CC1(Br)Br (centres unmarked) | 13.5%
35 | COc1ccc(C(=O)C2CCCN(C(=O)c3cnsn3)C2)c(C)c1 (centres unmarked) | 4.06%
36 | CC(C)Oc1cccc(C(=O)NC(=S)Nc2cccc(C(F)(F)F)c2)c1 | 11.7%
37 | CCc1noc(C)c1C(=O)NCCc1c[nH]c2ccccc12 | 4.07%
38 | O=C(NCc1ccccc1)C(c1ccc(F)cc1)N(C(=O)c1csnn1)C1CCCC1 (centres unmarked) | -0.388%
39 | Cc1cc(Nc2cccc(Cl)c2)nc(N2CCOCC2)n1 | -17.4%
40 | CC(=O)NC1C(=O)N=C(SCC(=O)Nc2c(C)cccc2C)NC1=O (centres unmarked) | -15%
41 | Nc1cc(-c2ccccc2)nn1S(=O)(=O)c1ccc(Br)cc1 | 17%
42 | Cc1ccc(OC(=O)CCC(=O)Nc2ccc(C(N)=O)cc2)cc1 | 18.2%
43 | COCC(C)NC(=O)NC1(C(F)(F)F)Oc2ccc(Cl)cc2O1 (centres unmarked) | 9.63%
44 | O=S(=O)(c1ccc(Cl)cc1)N1CCN(Cc2ccc(O)c3ncccc23)CC1 | -18.1%
45 | C/C(CC(c1ccccc1)c1c(O)c2ccccc2oc1=O)=N\NC(N)=S (centres unmarked) | 14.9%
46 | COc1ccc(NC(=O)C2CCC(CNc3c(N4CCOCC4)c(=O)c3=O)CC2)cc1Cl (centres unmarked) | 39%

Row | Compound | hERG current change (%, negative = inhibition) at 10uM
47 | CCOc1ccc(NC(=O)CSc2nnc(Cn3cnc4ccccc43)n2C)cc1 | -18.5%
48 | Cc1ccc(CCC(=O)Nc2ccc(N(C)C)cc2)o1 | -5.27%
49 | O=C(CSc1nc2ccccc2n1-c1ccccc1)NCC1CCCO1 (centres unmarked) | -22.1%
50 | Clc1ccc(CNCc2cccs2)cc1Cl | 7.52%
51 | CCCCN(C(=O)/C=C/c1ccc(OCC(C)C)c(OCC)c1)c1c(N)n(CCC)c(=O)[nH]c1=O | -5.15%
52 | COc1ccc(NC(=S)N2CCN(c3ncccn3)CC2)cc1 | -0.0506%
53 | O=C(NCCCn1ccnc1)c1nn2c(C(F)(F)F)cc(-c3ccccc3)nc2c1Cl | -29.6%
54 | O=C(Cc1c(F)c(F)c(F)c(F)c1F)Nc1nc(-c2ccccc2)cs1 | 21.1%
55 | O=C1NC(=O)C(CCc2ccncc2)(Cc2ccc3c(c2)OCO3)C(=O)N1CCc1ccccc1 (centres unmarked) | -32.5%
56 | CCOC(=O)c1nn(-c2ccccc2C)c2nc(CC(C)C)c(C#N)c(=O)n12 | -3.22%
57 | CN(C)C(=O)c1ccc(NC(=O)COC(=O)C2=COCCO2)cc1 | 11.4%
58 | COc1ccc(C2/C(=C(\O)c3ccc4c(c3)OCCO4)C(=O)C(=O)N2Cc2cccnc2)cc1 (centres unmarked) | 16.2%
59 | CCNC(=S)NNC(=O)c1cc(-c2cccc(OC)c2)nc2ccccc12 | -23%
60 | CCN1CCCC1CNC(=O)c1cc(NC(C)=O)c(N(C)C)cc1OC (centres unmarked) | 10.6%
61 | COCCCNC(=O)C1CCC(CNS(=O)(=O)c2ccc3c(c2)N(C(C)=O)CCO3)CC1 (centres unmarked) | 10.1%
62 | O=C(O)COc1cccc2ccccc12 | 4.81%
63 | CCn1c(NC(=O)C(C)C)c(-c2ccccc2)c(=O)c2ccccc21 | -0.195%
64 | NC(=S)N/N=C/c1coc2cc(Br)ccc2c1=O | 13.6%
65 | S=C(Nc1ccccc1)Nc1ccc(Cl)cc1Cl | 20.9%
66 | CC1(C)NC(=O)N(CC(O)COC2CCCCC2)C1=O (centres unmarked) | 8.64%
67 | COc1ccc(N2CCC(CNC(=O)Nc3ccc(OC)cc3OC)C2)cc1 (centres unmarked) | -6.99%
68 | CCn1c(=O)c(-c2ccccc2)c(O)c2ccccc21 | 0.885%
69 | Cc1ccc(-c2cc(C(=O)NCc3ccccn3)c3ccccc3n2)cc1 | -13.5%

Row | Compound | hERG current change (%, negative = inhibition) at 10uM
70 | COc1ccc(/C=N/NC(=O)CNC(=O)c2ccncc2)cc1 | 6.02%
71 | COc1ccc2sc(-c3ccc(N(C)C)cc3)c(C#CCCO)c2c1 | 6.83%
72 | COc1ccccc1C(=O)OCc1c(F)cccc1Cl | -1.14%
73 | Cn1c(=O)c2c(ncn2CC(=O)Nc2ccccc2)n(C)c1=O | 13.9%
74 | CCC1(c2ccccc2)NC(=O)N(CC#N)C1=O (centres unmarked) | 10.6%
75 | Cc1sc2nc(C3CCCCC3)nc(SCC(=O)N3CC(=O)Nc4ccccc43)c2c1C | 52.8%
76 | Cc1cc(-c2ccc(C(=O)O)s2)cnc1N | 9.32%
77 | CC1CCN(c2c(NCC3CCC(C(=O)N4CCCCC4)CC3)c(=O)c2=O)CC1 (centres unmarked) | 14.5%
78 | CC(=O)NS(=O)(=O)c1ccc(NC(=O)c2cccc(OCc3c(C)noc3C)c2)cc1 | 2.25%
79 | CCn1cc(C(=O)N[C@@H](CCSC)C(=O)NCCCOC)c(=O)c2cc3c(cc21)OCO3 | 15.4%
80 | O=C(CN(C(=O)c1ccc(Cl)cc1)C1CCCCC1)Nc1ccc(Cl)c([N+](=O)[O-])c1 | 1.58%
81 | c1ccc(Cc2nnc(N3CCOCC3)c3ccccc23)cc1 | -14.4%
82 | CC(C)c1cc(Br)c(NC(=O)Nc2cccnc2)c(Br)c1 | -6.29%
83 | Cc1nc(C)n(C(C)CNC(=O)c2ccccc2)n1 (centres unmarked) | 4.93%
84 | COc1ccc(S(=O)(=O)N(C)C)cc1NC(=O)COC(=O)c1nn(C)c(=O)c2ccccc12 | 4.64%
85 | C=CCc1cccc(/C=N/c2ncn[nH]2)c1O | -8.25%
86 | COc1ccc(S(=O)(=O)CC(=O)c2cc3cccc(C)c3oc2=O)cc1 | 5.51%
87 | CC(=O)C1C(c2ccc(Br)cc2)C2C(C)=NN=C2CC1(C)O (centres unmarked) | 7.87%
88 | Cc1cccc(C)c1NC(=O)COC(=O)C1CC1 | 5.29%
89 | NS(=O)(=O)c1ccc(Nc2ncccc2[N+](=O)[O-])cc1 | 9.69%
